Assay results reported in PubChem BioAssay AID504706 (National Center for Advancing Translational Sciences (NCATS), 2011).
In all, about 320,000 compounds went through this assay and about 200 (0.062%) were called active. This list was built around the results that the source calls inconclusive (neither active nor inactive); the mix of calls is not that of the screen. The call rests on the fitted dose curve; in most records, active means well fitted activation curve with a large enough effect; inconclusive means small, poorly fitted or top-dose-only effect; inactive means no such curve, though single readings can be large or run the other way. Potencies of inconclusive entries are left out as doubtful fits.

Experiment: qHTS assay for re-activators of p53 using a Luc reporter; further: nearly all actives have a fitted effect of over 45% in size; on activity change, positive = activation: % of control where 0% means no effect
Conditions: H1299 p53-A138V BP100-luciferase reporter, luminescence, 24 h; series mostly up to 92.2 µM; activity change, positive = activation: at the top concentration
Summary of the method: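 H1299 (p53-null), stable ts p53-A138V + BP100-Luc; 1000 cells/well, Opti-MEM/10% FBS; cpd 4 pt, 1:5; 24 h, 37 deg C, 5% CO2; detection reagent 10 min RT; luminescence.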
Potency means the concentration at half of the fitted maximal effect; tags describe the fitted curve by direction and shape.

Row | Structure (SMILES) | Potency | activity change, positive = activation
1 | CC(=O)C1=C(C)NC(SCC(=O)Nc2nc3ccccc3s2)=C(C#N)C1c1ccc(Cl)cc1 (stereo not given) | inconclusive [activator, full curve, poor fit] | 
2 | COCc1c(C(=O)N/N=C(/C)c2ccc(OCc3ccccc3)cc2)nnn1-c1nonc1N | inconclusive [activator, partial curve, poor fit] | 
3 | O=c1c(-c2ccccc2)nc(-c2ccccc2)cn1O | inconclusive [activator, single point] | 
4 | CC1=NN(C(=O)c2csc(C)c2C)C(O)(C(F)(F)F)C1 (stereo not given) | inconclusive [activator, partial curve, poor fit] | 
5 | Cc1ccc(C(=O)COC(=O)c2ccc(Cl)c(N)c2)s1 | inconclusive [activator, full curve, poor fit] | 
6 | Cn1c(CNC(=O)c2ccccc2F)nnc1SCC(=O)c1ccccc1 | inconclusive [activator, single point] | 
7 | CCCCn1c(N)c(N(CC(C)C)C(=O)COC(=O)C2(c3ccccc3)CC2)c(=O)[nH]c1=O |  | inactive: -2.3%
8 | CCCS(=O)(=O)NCc1cn2c(C)csc2n1 | inconclusive [activator, full curve, poor fit] | 
9 | CCOc1ccc(-c2cn(-c3ccc(OC)cc3)c(SC)n2)cc1 | inconclusive [activator, full curve, poor fit] | 
10 | Cc1cc(C(=O)NNC(=O)c2ccccc2[N+](=O)[O-])c(C)o1 | inconclusive [activator, single point] | 
11 | O=C(O)c1ccccc1NS(=O)(=O)c1ccc2ccccc2c1 | inconclusive [activator, partial curve, poor fit] | 
12 | COc1ccc(N(C(=O)Nc2ccc(Cl)cc2)C2=NCCC2)cc1 | inconclusive [activator, partial curve, poor fit] | 
13 | O=C(NC(=S)N(CCO)Cc1ccccc1)c1ccc(F)cc1Cl |  | inactive: -4.33%
14 | CCCCn1c(N)c(N(CCC(C)C)C(=O)COC(=O)c2sccc2C)c(=O)[nH]c1=O | inconclusive [activator, single point] | 
15 | O=C(c1ccccc1)c1c(O)cc(-c2ccccc2)oc1=O | inconclusive [activator, single point] | 
16 | CC1C(c2ccccc2)=[N+]([O-])C2(CCCCC2)N1O (stereo not given) | inconclusive [activator, single point] | 
17 | COc1ccc(/C=N/Nc2cc(OC)ncn2)cc1 | inconclusive [activator, full curve, poor fit] | 
18 | CCOC(=O)NC1(NCc2ccccc2)Oc2ccccc2O1 | inconclusive [activator, full curve] | 
19 | O=C(NCCOc1ccc(F)cc1)C1CCC(=O)N(CCc2ccccn2)C1 (stereo not given) |  | inactive: 1.76%
20 | COc1cc2c(cc1OC)CN(c1ccc(C(F)(F)F)cn1)CC2 |  | inactive: 22.5%
21 | C/C(=N/NC(=O)c1cc2ccccc2cc1O)C1C(=O)c2ccccc2C1=O | inconclusive [activator, full curve, poor fit] | 
22 | COc1ccc2c(c1)C(=O)N(c1ccccc1OC)C(=O)C2 | inconclusive [activator, single point] | 

Row | Structure (SMILES) | Potency | activity change, positive = activation
23 | COc1ccc(/C=C/C(=O)c2ccc(C)c([N+](=O)[O-])c2)cc1O | inconclusive [activator, partial curve, poor fit] | 
24 | Cc1noc2ncnc(Oc3cc(Cl)ccc3Cl)c12 | inconclusive [activator, single point] | 
25 | COc1ccc(NC(=O)/C(C#N)=C\C=C\c2ccco2)cc1 | inconclusive [activator, full curve, poor fit] | 
26 | O=C1c2ccccc2C(=O)c2c1ccc1c(=O)n(C3CCCCC3)[nH]c21 | inconclusive [activator, partial curve, poor fit] | 
27 | Cc1ccc(/C=N/NC(=O)Cn2cnc3c2c(=O)n(C)c(=O)n3C)s1 |  | inactive: -13.9%
28 | COc1ccccc1CN1CC(C(=O)N2CCOCC2)CCC1=O (stereo not given) | inconclusive [activator, partial curve, poor fit] | 
29 | CCS(=O)(=O)N1CCN(c2nc(-c3ccccc3)cs2)CC1 |  | inactive: 14.7%
30 | Cc1cc(N2CCOCC2)nc2ccccc12 | inconclusive [activator, partial curve, poor fit] | 
31 | CCC(C)/C(C)=N/NC(=O)c1ccc(CSc2nc3ccccc3s2)cc1 (stereo not given) | inconclusive [activator, partial curve, poor fit] | 
32 | COc1ccc(N2CCN(CCCNC(=O)C3(S(=O)(=O)c4ccc(Cl)cc4)CC3)CC2)cc1 | inconclusive [activator, partial curve, poor fit] | 
33 | N#CCSc1nnc(COc2ccc3ccccc3c2)o1 | inconclusive [activator, partial curve, poor fit] | 
34 | Cc1ccc(-c2nnc(-c3ccccc3S(=O)(=O)Cc3ccc(Cl)cc3)o2)cc1 |  | inactive: -0.0487%
35 | O=C(Cn1ccc2ccccc2c1=O)Nc1ccc2c(c1)OCO2 | inconclusive [activator, single point] | 
36 | O=C(Nc1nc(SCc2ccc(F)cc2)ns1)c1ccco1 | inconclusive [activator, partial curve, poor fit] | 
37 | O=C(NC1CCN(C(=O)N2CCOCC2)CC1)c1ccccc1 | inconclusive [activator, single point] | 
38 | O=C(OCCCN1CCCC1)C1(c2ccccc2)CCCC1 | inconclusive [activator, single point] | 
39 | CC(=O)Nc1cccc2c1C(=O)N(c1ccc(C)cc1)C2=O | inconclusive [activator, partial curve, poor fit] | 
40 | CC(C)c1cc(C(=O)N/N=C/c2ccoc2)cs1 | inconclusive [activator, single point] | 
41 | COc1ccc(OC)c(NC(=O)CSCc2cnn(-c3ccccc3)c2-n2cccc2)c1 |  | inactive: -2.05%
42 | Cc1csc(N/N=C/c2ccccn2)n1 | inconclusive [activator, partial curve, poor fit] | 
43 | COc1ccc(Cc2n[nH]c(=S)o2)cc1 |  | inactive: -0.529%
44 | O=C(NCCC1=CCCCC1)c1c(O)nc2ccccn2c1=O | inconclusive [activator, single point] | 

Row | Structure (SMILES) | Potency | activity change, positive = activation
45 | Cc1ccc(C(=O)Nc2nnc(C)s2)cc1 | inconclusive [activator, full curve, poor fit] | 
46 | Nc1nnc(SCc2nnc(-c3ccccc3)o2)s1 | inconclusive [activator, partial curve, poor fit] | 
47 | O=C(Nc1ccccc1F)c1ccc(Br)o1 | inconclusive [activator, partial curve, poor fit] | 
48 | Cc1cccc(CN2CCC(C(=O)Nc3ccc(Oc4cccnc4)cc3)CC2)c1 | inconclusive [activator, single point] | 
49 | Cc1ccccc1OCc1nc(-c2ccccc2)no1 | inconclusive [activator, full curve] | 
50 | Oc1ccc(C=Nc2ccccc2-c2nc3ccccc3[nH]2)cc1 | inconclusive [activator, partial curve, poor fit] | 
51 | CCOCC(=O)Nc1nc2ccc(S(C)(=O)=O)cc2s1 | inconclusive [activator, partial curve, poor fit] | 
52 | COc1ccc(C(=O)CCc2nc3ccccc3s2)cc1 | inconclusive [activator, partial curve, poor fit] | 
53 | CC(C)(C)c1ccc(OCCn2ccccc2=O)cc1 |  | inactive: 18.1%
54 | CC(C)=C1C(=O)NN(c2ccc(C)c(Cl)c2)C1=O |  | inactive: -1.27%
55 | O=C(NCc1ccc(-c2nc3ccccc3s2)cc1)c1ccco1 | inconclusive [activator, partial curve, poor fit] | 
56 | COC(=O)c1ccc(C(=O)NC(=S)Nc2nc3c(s2)CCCC3)cc1 | inconclusive [activator, partial curve, poor fit] | 
57 | O=[N+]([O-])c1cccc(-c2cnc3ccccc3n2)c1 | inconclusive [activator, full curve, poor fit] | 
58 | O=C(N/N=C(\c1ccccc1)c1cccnc1)c1cccc(F)c1 | inconclusive [activator, full curve, poor fit] | 
59 | O=[N+]([O-])c1cccc(CNc2ccc3c(c2)CCC3)c1 | inconclusive [activator, full curve, poor fit] | 
60 | N/C(=N\OC(=O)CSc1ccccc1)c1cccc([N+](=O)[O-])c1 | inconclusive [activator, full curve, poor fit] | 
61 | O=C(N/N=C/c1ccc2c(c1)OCO2)C1CC1 | inconclusive [activator, partial curve, poor fit] | 
62 | COc1ccc(/C=C\C(=O)Oc2cccc(/C=N/NC(=O)Cc3ccc(OC)c(OC)c3)c2)cc1 | inconclusive [activator, full curve, poor fit] | 
63 | CC(=O)Nc1ccc2c(c1)nc(CCNC(=O)c1ccco1)n2C |  | inactive: 3.59%
64 | CCOC(=O)c1c(C)oc2c1c1c(c3ccccc32)OCN(Cc2cccnc2)C1 | inconclusive [activator, full curve, poor fit] | 
65 | O=C(Cn1sc2ccccc2c1=O)N1CCN(C(=O)c2ccco2)CC1 | inconclusive [activator, partial curve, poor fit] | 
